Measured values reported in article PMC4336329 (PLoS ONE, 2015).
Among all 310,000 compounds or so, about 14,000 (4.5%) showed an effect of 50% or more. Effects have a minus sign here. The list shows a part of the results.

What follows are compounds tested against human ether-à-go-go-related gene (hERG) potassium channel (human, UniProt Q12809) (assay: primary screen, population patch clamp on CHO cells stably expressing hERG).
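Note: peak tail current of the secondary pulse compared with the same well before compound.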

Chain of human ether-à-go-go-related gene (hERG) potassium channel (Q12809 whole entry, looked up): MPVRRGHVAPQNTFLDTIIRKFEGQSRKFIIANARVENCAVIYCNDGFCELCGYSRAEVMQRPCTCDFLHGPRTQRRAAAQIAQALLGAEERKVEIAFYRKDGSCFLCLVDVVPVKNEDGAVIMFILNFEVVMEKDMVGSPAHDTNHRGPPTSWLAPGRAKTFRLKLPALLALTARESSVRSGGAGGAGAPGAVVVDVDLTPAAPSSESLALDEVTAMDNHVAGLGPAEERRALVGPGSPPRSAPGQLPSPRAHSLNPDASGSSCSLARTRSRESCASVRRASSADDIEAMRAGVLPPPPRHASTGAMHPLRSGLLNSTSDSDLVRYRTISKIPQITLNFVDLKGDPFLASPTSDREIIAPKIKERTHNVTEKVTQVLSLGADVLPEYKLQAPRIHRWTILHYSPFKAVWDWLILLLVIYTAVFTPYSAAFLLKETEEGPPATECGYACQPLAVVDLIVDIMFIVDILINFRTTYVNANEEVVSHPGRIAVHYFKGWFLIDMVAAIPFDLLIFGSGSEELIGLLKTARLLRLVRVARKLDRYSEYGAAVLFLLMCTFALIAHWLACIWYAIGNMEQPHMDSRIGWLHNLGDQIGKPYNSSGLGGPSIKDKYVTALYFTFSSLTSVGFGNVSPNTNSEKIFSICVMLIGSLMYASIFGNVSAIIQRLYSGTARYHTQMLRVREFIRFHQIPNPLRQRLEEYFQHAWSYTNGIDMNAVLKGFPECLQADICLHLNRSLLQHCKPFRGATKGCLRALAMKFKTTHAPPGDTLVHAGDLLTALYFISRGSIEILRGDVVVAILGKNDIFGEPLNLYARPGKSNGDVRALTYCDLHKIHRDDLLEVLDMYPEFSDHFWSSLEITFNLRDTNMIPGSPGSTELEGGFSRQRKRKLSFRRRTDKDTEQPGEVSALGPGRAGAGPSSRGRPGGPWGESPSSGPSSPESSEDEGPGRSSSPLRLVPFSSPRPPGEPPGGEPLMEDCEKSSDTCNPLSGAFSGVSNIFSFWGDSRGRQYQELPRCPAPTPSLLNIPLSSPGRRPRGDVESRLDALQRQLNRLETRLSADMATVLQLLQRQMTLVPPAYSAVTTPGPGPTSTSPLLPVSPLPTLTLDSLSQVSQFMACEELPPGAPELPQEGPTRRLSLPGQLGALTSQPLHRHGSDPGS

**Q.** For `CC(C)(C)c1ccc(-n2ncc3c2CCCC3NC(=O)CN2CCOC2=O)cc1` (stereo not drawn), which “hERG current change (%, negative = inhibition) at 10uM” value is on record?
**A.** 0.93%

**Q.** Which “hERG current change (%, negative = inhibition) at 10uM” value does the source give for `CCCn1nnnc1NCc1ccccc1OCc1ccc(F)cc1` here?
**A.** -16%

**Q.** For `O=C([O-])c1cc(=O)[nH]c2ccc(S(=O)(=O)Nc3ccc(F)cc3)cc12.[K+]`, which “hERG current change (%, negative = inhibition) at 10uM” value is on record?
**A.** 23.5%

**Q.** Which “hERG current change (%, negative = inhibition) at 10uM” value does the source give for `COc1ccc2c(COC(=O)CCS(=O)(=O)c3ccc(C)cc3)cc(=O)oc2c1` here?
**A.** -14.1%

**Q.** With `CCCCNC(=O)c1cccc2c(=O)c(C)c(-c3ccccc3)oc12` as the compound, how does the “hERG current change (%, negative = inhibition) at 10uM” value read?
**A.** -23.7%

**Q.** With `CC(C(=O)Nc1cccc([N+](=O)[O-])c1)N1CCN(C/C=C/c2ccccc2)CC1` (stereo not drawn) as the compound, how does the “hERG current change (%, negative = inhibition) at 10uM” value read?
**A.** -75.6%

**Q.** `COc1ccccc1-c1oc2ccccc2c1-c1ccc2c(c1)OCO2` was tested. Which “hERG current change (%, negative = inhibition) at 10uM” value did it give?
**A.** 16.7%

**Q.** With `Cc1ccc(NC(=O)Nc2cc(S(=O)(=O)N(C)C)ccc2C)cc1` as the compound, how does the “hERG current change (%, negative = inhibition) at 10uM” value read?
**A.** 0.631%

**Q.** For `CSCc1cc(N2CCOCC2)nc(SCc2ccc(Cl)cc2Cl)n1`, which “hERG current change (%, negative = inhibition) at 10uM” value is on record?
**A.** 2.63%

**Q.** For `COC(=O)c1ccccc1OCCCCN1CC(C)OC(C)C1.O=C(O)C(=O)O` (stereo not drawn), which “hERG current change (%, negative = inhibition) at 10uM” value is on record?
**A.** -7.3%

**Q.** For `CC(C)Cc1nn2c(N)c(/C=C3\C=Nc4ccccc43)c(=O)nc2s1`, which “hERG current change (%, negative = inhibition) at 10uM” value is on record?
**A.** 15.8%

**Q.** For `O=C(Nc1ccccc1)/C(=C\c1ccc(F)cc1)NC(=O)c1ccco1`, which “hERG current change (%, negative = inhibition) at 10uM” value is on record?
**A.** 3.87%

**Q.** How did the “hERG current change (%, negative = inhibition) at 10uM” value turn out when `O=C(O)CSc1nccn1-c1cccc(Cl)c1` was run?
**A.** 11.1%

**Q.** How did the “hERG current change (%, negative = inhibition) at 10uM” value turn out when `CCC(=O)N1CCCN(S(=O)(=O)c2ccc(C)cc2)C1c1ccc(OC)cc1` (stereo not drawn) was run?
**A.** -23.1%

**Q.** How did the “hERG current change (%, negative = inhibition) at 10uM” value turn out when `Cc1nc(C)c(-c2csc(N)n2)s1` was run?
**A.** -3.5%

**Q.** How did the “hERG current change (%, negative = inhibition) at 10uM” value turn out when `O=C(CN1CCN(C(=O)CNC(=O)c2ccc(N3CCCC3=O)cc2)CC1)Nc1ccccc1Cl` was run?
**A.** -0.992%

**Q.** `COc1ccc(-c2nc3c(-c4ccc(F)cc4)cnn3cc2C)cc1F` was tested. Which “hERG current change (%, negative = inhibition) at 10uM” value did it give?
**A.** 9.86%

**Q.** `O=C(/C=C/c1cccc(Br)c1)N1CCN(c2ccccn2)CC1` was tested. Which “hERG current change (%, negative = inhibition) at 10uM” value did it give?
**A.** -45.2%

**Q.** For `CCOC(=O)NNc1ccc(C(F)(F)F)cn1`, which “hERG current change (%, negative = inhibition) at 10uM” value is on record?
**A.** 16.3%

**Q.** For `CC1=C(c2ccc(F)cc2)[N+](=O)C(C)(C)N1[O-]`, which “hERG current change (%, negative = inhibition) at 10uM” value is on record?
**A.** 17.7%

**Q.** For `Cc1oc2ccc(OCc3c(F)cccc3Cl)cc2c1C(=O)O`, which “hERG current change (%, negative = inhibition) at 10uM” value is on record?
**A.** 18.5%

**Q.** `COc1ccc(-c2csc3ncnc(N4CCN(S(=O)(=O)c5ccc(Cl)s5)CC4)c23)cc1` was tested. Which “hERG current change (%, negative = inhibition) at 10uM” value did it give?
**A.** -6.02%

**Q.** Which “hERG current change (%, negative = inhibition) at 10uM” value does the source give for `O=C(/C=C/c1cccc([N+](=O)[O-])c1)c1ccc2c(c1)OCCO2` here?
**A.** 3.36%

**Q.** How did the “hERG current change (%, negative = inhibition) at 10uM” value turn out when `O=C1CC(c2ccc(S(=O)(=O)NCCOc3ccccc3)cc2)CN1` (stereo not drawn) was run?
**A.** 9.42%

**Q.** `CCN(CC)S(=O)(=O)c1cccc(NC(=O)c2ccc(Br)cc2)c1` was tested. Which “hERG current change (%, negative = inhibition) at 10uM” value did it give?
**A.** 4.07%

**Q.** `COc1ccc(CCNC(=O)CS(=O)Cc2nc(-c3ccccc3Cl)oc2C)cc1OC` (stereo not drawn) was tested. Which “hERG current change (%, negative = inhibition) at 10uM” value did it give?
**A.** -4.34%

**Q.** With `COc1ccc(-n2ncc3c(=O)n(Cc4c(F)cccc4Cl)cnc32)cc1` as the compound, how does the “hERG current change (%, negative = inhibition) at 10uM” value read?
**A.** 16.3%

**Q.** For `CSc1cccc(CN2CCCC(CO)(Cc3cccc(Cl)c3)C2)c1` (stereo not drawn), which “hERG current change (%, negative = inhibition) at 10uM” value is on record?
**A.** -29%

**Q.** Which “hERG current change (%, negative = inhibition) at 10uM” value does the source give for `Cc1cc(Br)cn2ccnc12` here?
**A.** -6.51%

**Q.** `O=c1[nH]c(=S)[nH]c2c1C(c1ccc(Br)cc1)c1c([nH]c(=S)[nH]c1=O)O2` was tested. Which “hERG current change (%, negative = inhibition) at 10uM” value did it give?
**A.** 16.5%

**Q.** For `COc1cccc(C(=O)O/N=C(\N)CS(=O)(=O)c2ccccc2)c1`, which “hERG current change (%, negative = inhibition) at 10uM” value is on record?
**A.** 11%

**Q.** How did the “hERG current change (%, negative = inhibition) at 10uM” value turn out when `Cc1ccc(NC(=O)COC(=O)c2ccco2)cc1` was run?
**A.** -2.75%

**Q.** For `Cc1cc(SCC#N)n2nc(C)c(-c3ccc(Cl)cc3)c2n1`, which “hERG current change (%, negative = inhibition) at 10uM” value is on record?
**A.** 24.9%

**Q.** For `COc1ccc(Cc2nnc(NCCO)[nH]c2=O)cc1`, which “hERG current change (%, negative = inhibition) at 10uM” value is on record?
**A.** 16.5%

**Q.** How did the “hERG current change (%, negative = inhibition) at 10uM” value turn out when `CCCN(CC(=O)Nc1ccc(NC(C)=O)cc1)CC(=O)Nc1ccc(F)c(F)c1F` was run?
**A.** 9.97%

**Q.** `C#Cc1ccc(CN2CCN(CCc3ccccc3)C(CCO)C2)cc1` (stereo not drawn) was tested. Which “hERG current change (%, negative = inhibition) at 10uM” value did it give?
**A.** -58.8%

**Q.** For `O=[N+]([O-])c1cc2c(cc1/C=N/n1c(-c3ccccc3)n[nH]c1=S)OCO2`, which “hERG current change (%, negative = inhibition) at 10uM” value is on record?
**A.** 10.8%

**Q.** How did the “hERG current change (%, negative = inhibition) at 10uM” value turn out when `CCOC(=O)C1=C(N)Oc2cc(C)oc(=O)c2C12C(=O)N1c3c(cccc32)C(C)CC1(C)C` (stereo not drawn) was run?
**A.** -7.18%

**Q.** How did the “hERG current change (%, negative = inhibition) at 10uM” value turn out when `Cc1ccccc1NC1=C(Cl)C(=O)OC1OC(C)C` (stereo not drawn) was run?
**A.** 7.51%

**Q.** For `COc1ccc(/C=C2/N=C(SC)NC2=O)cc1OC`, which “hERG current change (%, negative = inhibition) at 10uM” value is on record?
**A.** 6.4%

**Q.** For `COc1ccc(S(=O)(=O)N(C)CC(=O)Nc2c(F)cccc2F)cc1`, which “hERG current change (%, negative = inhibition) at 10uM” value is on record?
**A.** 5.53%

**Q.** `COc1cccc(COc2ccc(N(C)S(=O)(=O)c3ccccc3)cc2)c1` was tested. Which “hERG current change (%, negative = inhibition) at 10uM” value did it give?
**A.** 3.08%

**Q.** How did the “hERG current change (%, negative = inhibition) at 10uM” value turn out when `Cc1ccsc1C1Nc2ccc3ncccc3c2C2=C1C(=O)CC(C)(C)C2` (stereo not drawn) was run?
**A.** -4.2%

**Q.** With `Cc1cccc(NC(=O)CCSc2nncn2C)c1` as the compound, how does the “hERG current change (%, negative = inhibition) at 10uM” value read?
**A.** 27.4%

**Q.** With `O=C(NNc1c2ccccc2nc2ccccc12)c1ccccc1Cl` as the compound, how does the “hERG current change (%, negative = inhibition) at 10uM” value read?
**A.** 2.94%
